# The supplement of paper PMC11417369
# The list shows a part of the results.
# System: PfSIP2 AP2 domain 1 (GST-tagged)
# Assay: gcPBM binding intensity (ln(normalized median fluorescence intensity)); higher = stronger DNA binding
# Procedure, shortened: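 Binding intensity is the highest Masliner-normalised natural-log median intensity over replicate spots in either probe orientation. To obtain it, GST-tagged P. falciparum DNA-binding domains made in E. coli were incubated for 1 h on an Agilent 4 × 180k array of primer-extended double-stranded 36-bp intergenic genomic probes plus negative controls. Detection used Alexa488 anti-GST antibody with scanning at 488 nm.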
row,Sequence,gcPBM binding intensity (ln)
1,TAGGTCCTCATTTTATGTACATAAAGAAATATGATT [XGTACX_site4138],6.91
2,TATTTATAGATATATACACACATATACATATTGTTT [CACACA_site7611],7.02
3,ATATAAACATTTAGTAATCCATATAGGTACTACTGA [CACACA_negctrl_site1249],6.85
4,AAAAAAAATATATAAACACACATATTTATATACGCA [CACACA_site1631],6.75
5,ATATATGCTAATATATGTACTGATTATATCTCTTCA [XGTACX_site7156],6.83
6,TAGTATTAAATATATACACACATATATACATATAGA [CACACA_site2154],6.99
7,TTAATTTTTTTTTCTTGTACACACTATTTTATAATT [XGTACX_site8783],7.19
8,GCAGCAGCATTTTCAGTGCATTATTATATTGTTCAT [GTGCAC_site9926],7.98
9,GTAATAAAATGACATACATGCATTACAATTATGTAA [TGCATGCA_site220],6.75
10,TATTATAATACTTATTGTACTTTTAGGTTAATTTAT [XGTACX_site995],6.82
11,GTTGCACAATGTTACACACACAATATATATCGTTAA [CACACA_site1275],7.38
12,CCCTTTTTTTTTTAATGTACATATAATTATATATTT [XGTACX_site8568],7.3
13,GGAAACCTTTTTTTTACACACAATATATTAAGACTT [CACACA_site4899],6.93
14,AATTGTACGTAGGGGTATAAAAGCTTAAAAATGGGG [CACACA_negctrl_site1392],7.61
15,AAAGCAAAAGGAAAATAACCAACCCTAATTAACACA [CACACA_negctrl_site530],6.92
16,TTTGTTAAAAATATATTATGAATAAAAATATATTTT [CACACA_negctrl_site170],6.7
17,TTAAAACATAAAAAAAGTACATACAAATATATATAA [XGTACX_site789],7.07
18,TATGTCAATCAAGCAAGTACATATATATATAAATAT [XGTACX_site7554],7.01
19,TACAAAATAACTAGCACACATATGTATAAACATATA [CACACA_site5948],6.83
20,AATTATATTACGAAATGTACATATAATAATGTATAT [XGTACX_site4410],7.01
21,GCCATTGTACCATCCACACACATATATATATGTATA [CACACA_site2704],7.72
22,TTCAAAACTTAAAATCGTACAAGACAATTATTATAT [XGTACX_site6626],7.03

row,Sequence,gcPBM binding intensity (ln)
1,CTTTTAATATTAAGATGTACTTAGAATTTTTTTTTT [XGTACX_site8338],6.83
2,CATATATATTTATGTACACACATTAATAAAAAAAAA [CACACA_site5741],7.3
3,TTTTTTGTTATTGGCGTGCACATATCCATTTATAGT,9.96
4,ATATATATAAATAATTGTACTTAAAAAAAAAAAAGG [XGTACX_site6847],7.53
5,AACAGCATATCACATTTCTTCAAAAAAAAATAAAAT [CACACA_negctrl_site733],6.95
6,TGTAGAGCGCAAAGTAGTACTACAAATTATGGAGGG [XGTACX_site3022],7.27
7,TAAACACCCATATAAACACACATACATACATACATA [CACACA_site5383],7.19
8,GATTAATTTAAAAAATGTACATTTTATTGTATAACC [XGTACX_site5539],7.1
9,CCAAGAAACCAAAAAAGTACATACATGGTTATAATT [XGTACX_site4249],6.98
10,ACAATATGTATATATATATATATGCAAATGTATAAA [CACACA_negctrl_site53],7.22
11,ATATTAAATTCAATTTAATGTTTTGTGAATTTTAGA [CACACA_negctrl_site1421],6.66
12,TTAAATGGAAAAATATGTACATATATATATATATTT [XGTACX_site2286],7.31
13,TGAACTCATAGATTTAGTACATATATAAAAAAATTC [XGTACX_site1692],6.93
14,TATACACGCGGACACACACACACACGCAAAAAAAAA [CACACA_site6377],7.47
15,TAAAAACCAAAGAAAAGTACAAATTTAAATGAGAAA [XGTACX_site7450],6.88
16,TTTACACCGTAATATGCATGTGTGTATATATTTTTG [TGCATGCA_site186],6.97
17,ATAAGCCATTTTTGTGGTACATAAAATAGATATATA [XGTACX_site5175],6.83
18,CATCTTAGTTTGAGTTGTACAATATTTATAAAAATA [XGTACX_site693],7.6
19,ACAAGTTTAACATTTCGTACTTATTGTGTTTTTTTT [XGTACX_site5487],6.85
20,ATATATATTTAAAGATGTACATAATGAAATGGTTAT [XGTACX_site4706],7.36
21,GCAGTATTTCGGAACACACAAACATAAATATGTATT [CACACA_site2316],7.11
22,ATATATATATATGTATGTACATATTTTTTTTAACAC [XGTACX_site8475],9.06

row,Sequence,gcPBM binding intensity (ln)
1,GCACAATTTACACTTAAACACACAAAAAAAAATTAT [CACACA_site8642],7.39
2,AGCACAGACGGACACACACACACACCCACAGACACA [CACACA_site4358],7.23
3,AAATTTATTTATTATAGTACACTTAATACTACCCAA [XGTACX_site41],6.87
4,TAGTTTTCTTAAAGATGTACTTATTAAAAATAAACT [XGTACX_site1001],7.08
5,AATGATTGATTTTATTGTACGTACTCGGAATATGGT [XGTACX_site4976],7.35
6,TATAGATAAATTATTTGTACTTATAAAATTATTATA [XGTACX_site2870],6.74
7,GAATTTTAAATAAACATATAAACAGAAAAAAAAAAA [TGCATGCA_negctrl_site149],6.86
8,TTATCTTACATATATCATTAAATCATATAACAAAAA [XGTACX_negctrl_site517],7.08
9,AACCTCATGGACATATGTACACATATACAATTATTT [XGTACX_site6533],7.42
10,CACAAATATACAAATACACACAAATATACGCATATA [CACACA_site2384],7.04
11,CCTTTATAATTGGAAACACACATATAAAGTATATAT [CACACA_site3900],6.9
12,GTTATATTTAAAATAGTGCAATAAAAATAATAATAT,8.42
13,TTATGTATTTTAAATGGTTTTATTATAAAGTTTAAT [CACACA_negctrl_site1470],6.81
14,TACATAACTTTAATCACACACAAACAAACACATACA [CACACA_site6235],7.17
15,ATATAATATATATACAAACACACAATTGTGTCCACA [CACACA_site1748],7.18
16,AAAATACATGGACACACACACACACCGATATATATA [CACACA_site5885],7.4
17,AAATATACATATATATGTACATATAAATATATTTTA [XGTACX_site5266],7.03
18,TCTTACAAGGAACTAATAAAATTGTAGTTTGTATTT [CACACA_negctrl_site386],6.59
19,TTATTATTTATTTTTTATTATTATTATTTTTTTTTA [XGTACX_negctrl_site76],6.59
20,CATATATTTTGAAACACACACATATAAAATATACAT [CACACA_site6664],7.08
21,AAGTATTTCCTAAAATGTACATATAAATAAGTATAT [XGTACX_site1282],6.97
22,AAATCTTAATAAAGTTGTACATAATTATGTTTAATA [XGTACX_site3348],6.95

row,Sequence,gcPBM binding intensity (ln)
1,TTAAAATTAAAATACGTACACACCTTATCTTTTTGG [CACACA_site7982],7.08
2,GAAAAGATTTAAAAATGTACAAAAGAAAAAAAAAAA [XGTACX_site6916],6.81
3,TGGTTATAATTGTACGCATGTAATTACATATTCTCT [TGCATGCA_site599],7.08
4,AATATGCCTCCCCAAAAAAAATATATATATATTTAT [GTGCAC_negctrl_site716],7.37
5,TATATTTAAATATATACACACATTATCATTTTCATA [CACACA_site1708],6.94
6,TTTTTTACTATATCAATTACAAAACAAAAAAAAAAA [GTGCAC_negctrl_site683],7
7,TATCATTTGGTCTTTTACTTTTTCTGTTTTTTTTTT [CACACA_negctrl_site976],6.8
8,AAATATGTTTCAAAAAGTACATTTCTATCTTTTTTT [XGTACX_site7178],6.84
9,TGATAAAATATTAAATTATTTCTTTATTTAAAGATT [CACACA_negctrl_site370],6.67
10,AAATTATTATGAAATGGAAAATGCATAAATTGTTTT [XGTACX_negctrl_site206],6.77
11,ATTAAATAATAATAATGTACGTATTATATTAATACA [XGTACX_site5439],7.15
12,TAAAATTTAAAATATACACACAAAAAGTTATTACAA [CACACA_site4080],6.93
13,CTCTTTAAAAATATGGGTACAAAAAAAAAAAAAATA [XGTACX_site6185],7.04
14,ATTCTTTACTCATAAAATTATATTATATAAACTTTT [XGTACX_negctrl_site554],7.5
15,AAAACAGTGACAACTCGTACTTATATTTTTTTTTGT [XGTACX_site4968],6.79
16,AGGCCCTATGTTGTTACACACATAGAATGATACATC [CACACA_site1266],6.7
17,CAAAGATAAAATGATGCACACAAAAGGGTGTAATAT [CACACA_site8499],7.3
18,TATATTTATTTATATGTATGCATGTCTGTATATGCT [TGCATGCA_site339],6.88
19,AAAGTACAATCATAATCACACGTGTCTATTATATAC [CACACA_site8103],6.84
20,ACATGGTTTACACGTGCATGTGGATGACTGGACATT [TGCATGCA_site640],7.68
21,AATACGACAAACAAATGTACAAATAAATATTCGCGT [XGTACX_site6427],6.9
22,TGAGAAAATTAAAAGGTGCTCAGAAATTTTATATTA [GTGCAC_site9954],7.75
